# This sample is rich in variants without activity.
# B1: TPR 5TU (parent)
# chain: GGAUCUUCUCGAUCUAACAAAAAAGACAAAUCUGCCACAAAGCUUGAGAGCAUCUUCGGAUGCAGAGGCGGCAGCCUUCGGUGGCGCGAUAGCGCCAACGUUCUCAACUAUGACACGCAAAACGCGUGCUCCGUUGAAUGGAGUUUAUCAUG
# Variants of: B1
# Test: polymerase ribozyme fitness, log enrichment relative to wild type (log ratio); higher = more active; in vitro selection for triplet polymerase activity
# Procedure, shortened: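 Fitness is a logarithmic measure of how a genotype enriched relative to the wild type, with replicate averages weighted by inverse variance. The logarithm uses base 2, and enrichment came from Illumina sequencing of input and output libraries. Those libraries were PCR-built, transcribed mutants of each subunit of a heterodimeric triplet polymerase ribozyme, passed through one triplicate in vitro selection round that included frozen incubation at −7 °C, gel excision of extended constructs and streptavidin-bead capture. Genotypes were kept only if they had ≥10 input reads and ≥1 read per output.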
row,Variant,polymerase ribozyme fitness (log ratio)
1,G65A G67U G88U G136C U139C G143A,≤ -4.2
2,C63U A66G G67U C75U G94U C99A A110G G143A,≤ -4.2
3,A66U U101C,≤ -4.2
4,G67U G92U C96U A113U,≤ -4.2
5,G68A G80A C87G G88A C108U G140U,≤ -4.2
6,C69A C85U U101G,≤ -4.2
7,A64C C149A G152U,≤ -4.2
8,C69A A91U A107U,≤ -4.2
9,G68A C116U,≤ -4.2
10,G68C C93U A113U,≤ -4.2
11,A66G G68A C79U C93A A98G U102G C132G U134C G143C,≤ -4.2
12,A66G A73G C93U U148A,≤ -4.2
13,C63U A73G,-0.225
14,A66U U82A G88C C96U U102A,≤ -4.2
15,G68A C75A G128A A150C,≤ -4.2
16,A66C G74C C85G U104C A107G A115G U135G A138U G140U U148A,≤ -4.2
17,G68A G86C U101C,≤ -4.2
18,G67A C72U C75G G92C C95U A113G C116G,≤ -4.2
19,A66C C95U A98G U130G,≤ -4.2
20,A64U G67A A98G A137G U146A U148G,≤ -4.2
21,A66U C85U C93U U134C A142U U145G,≤ -4.2
22,C69A A91U A98C A107G A150C,≤ -4.2
23,G67U C75A G92A G124U,≤ -4.2
24,G62U C116U,0.138

row,Variant,polymerase ribozyme fitness (log ratio)
1,C69A G71U C87A A97C,≤ -4.2
2,G68A A119U A122U U148A,≤ -4.2
3,A66C G143A,≤ -4.2
4,G68A A113C,≤ -4.2
5,A66C C76U A91U A97U C114U A142G,≤ -4.2
6,G68A C87G U104G,≤ -4.2
7,G67A G80C A122C C125U U139A G140U,≤ -4.2
8,A66G C87G C99G U135G,≤ -4.2
9,C63U C87U A107C,≤ -4.2
10,A64C U77G G86C U90C G124U C125A,≤ -4.2
11,G68A G71U G81C C105A C118G,≤ -4.2
12,A66U U144A,≤ -4.2
13,A64G A73G A98U G128U,≤ -4.2
14,G68U A91U,≤ -4.2
15,G68U A91G,≤ -4.2
16,A64U A97U C131A,≤ -4.2
17,G68C G92A U145G A147C,≤ -4.2
18,G67A U102G,≤ -4.2
19,A64U C87A C95U U139A,≤ -4.2
20,G68U C87A,≤ -4.2
21,G62U G68A A147C,≤ -4.2
22,G67C A73U G83A C87U C99G C105A,≤ -4.2
23,A66C C87G C105G,≤ -4.2
24,A66G C85U,-3.45

row,Variant,polymerase ribozyme fitness (log ratio)
1,G65U A91U A107C A115U,≤ -4.2
2,G67A A91G,≤ -4.2
3,A66C C79G G83U,≤ -4.2
4,A66G G83C U111G,≤ -4.2
5,G68A G133U,≤ -4.2
6,G67C C85G G86C C93A A106U,≤ -4.2
7,A64C U90C A138U G152A,≤ -4.2
8,G67C C87U C149U,≤ -4.2
9,A66C U90G A150C,≤ -4.2
10,A64G G81C G83C G100C,≤ -4.2
11,G68A G94C,-4.03
12,C63A C79A U90A G143C,≤ -4.2
13,G68U C75U G83C A89G,≤ -4.2
14,G68U A89G C93U G117U,≤ -4.2
15,G67C C96U C103U C114A,≤ -4.2
16,G68C C131U,≤ -4.2
17,G67C U104G A106C A110G G141C,≤ -4.2
18,A66C G67A A73G,≤ -4.2
19,G65C A66C A73C C87A,≤ -4.2
20,G67U A73U A91G G117U,≤ -4.2
21,G68A G86C A107U G140U,≤ -4.2
22,A66C C85A C95A A121U G126A U151C,≤ -4.2
23,A66G C93U U139A G141A U146G,≤ -4.2
24,A64C C76U A98G G100A G128U U134G,≤ -4.2

row,Variant,polymerase ribozyme fitness (log ratio)
1,G68C C93A C108G G117A A138G,≤ -4.2
2,G67C U78A A91G A137G,≤ -4.2
3,G67C C72U C85G G143C,≤ -4.2
4,C63U A64G G83C,≤ -4.2
5,G68A G92C C99A,≤ -4.2
6,G68C A122U,≤ -4.2
7,G68A C99U C108A,≤ -4.2
8,C63U A64C G128A G141C,≤ -4.2
9,A66U C93A C96A A137C,≤ -4.2
10,G67A G86A,-3.58
11,G65A C132G A142U,≤ -4.2
12,C63A G83A G92A,≤ -4.2
13,G67C A120U,≤ -4.2
14,A66C C95A C96G A107U C118U A142U,≤ -4.2
15,A64C C69U G86U G88U A89G C93U U144C,≤ -4.2
16,C63G A66C C87A G124C G140C,≤ -4.2
17,A66G C96U A138U U151A,≤ -4.2
18,A66U C93U A107C G143U,≤ -4.2
19,G65A G84A A137G G140C,≤ -4.2
20,G68A C85U C108A,≤ -4.2
21,G67C U90G C118G,≤ -4.2
22,C63G C72U C93U,-0.337
23,G65A A73G G84C U111A,≤ -4.2
24,C63G G83A G86U A120G,≤ -4.2

row,Variant,polymerase ribozyme fitness (log ratio)
1,A66G G74C,≤ -4.2
2,G68A C87G,≤ -4.2
3,A66C U135A,≤ -4.2
4,C63U A66G C79G G83U G94U C105G U146G,≤ -4.2
5,C63U C69U C76U C93A A113U G136C,≤ -4.2
6,G68C A89G G94A A113U,≤ -4.2
7,C63A G68C C87A G117A U148C,≤ -4.2
8,G68U U127G,≤ -4.2
9,G68A U130C,-3.95
10,G67C G100C A137G,≤ -4.2
11,C63G G68U C72G G92A C105U G133U,≤ -4.2
12,A66G G68C U109G C132A G141U,≤ -4.2
13,A66C G84A,≤ -4.2
14,A64G C93G U146G U151C,≤ -4.2
15,C63U C99U C116A,0.561
16,G68A C87A G88A A142G U145A,≤ -4.2
17,G68C C93A,≤ -4.2
18,C63A C87G,≤ -4.2
19,G68U A150G,≤ -4.2
20,G65C G67C,≤ -4.2
21,G67U G117A U151A,≤ -4.2
22,C69A C85A G124U,-2.55
23,C63U G68A G83C A115C,≤ -4.2
24,A64G A98U C114A G141C,≤ -4.2

row,Variant,polymerase ribozyme fitness (log ratio)
1,A66C A91G A98U C131A U139A,≤ -4.2
2,G67C C95U,≤ -4.2
3,A66C C96G C99U C125A A150G,≤ -4.2
4,C63A A91G C96U,≤ -4.2
5,A66C A142U,≤ -4.2
6,C63U C85U C123U U127A G141U,≤ -4.2
7,G67A C76A U90C G140A,≤ -4.2
8,G68C G136U A142G,≤ -4.2
9,A64G A89C U90G C149U,≤ -4.2
10,C63U G70C C87G A89G C96A G126C,≤ -4.2
11,A66G A137G,≤ -4.2
12,A64U C99A,≤ -4.2
13,A66U C103A C116U,≤ -4.2
14,G62U U90A,≤ -4.2
15,G67A G81C G88A,≤ -4.2
16,G68C G81U C96U U109C,≤ -4.2
17,C69A C93U C103A U139A A142G,≤ -4.2
18,C69A G83C A91C A115G U145C,≤ -4.2
19,A64G G83U G124U,≤ -4.2
20,A66U G71A A91C A147C,≤ -4.2
21,A66G C96A A110G,≤ -4.2
22,A64U G68U G83A G94A,≤ -4.2
23,G67A C79A,≤ -4.2
24,G65A C76A A122U,-4.06

row,Variant,polymerase ribozyme fitness (log ratio)
1,C69A A73C C76U C85U U146A,≤ -4.2
2,A66C G100U,≤ -4.2
3,G68A G84U C131G G143U,≤ -4.2
4,G67C U101A G141U A150U G152U,≤ -4.2
5,G68C C85G C116A U134G,≤ -4.2
6,G67U C118U,-2.87
7,A66G A91G C96U A97U C116U,≤ -4.2
8,A66G A91C,≤ -4.2
9,A66G A91U,≤ -4.2
10,A66C C85G A122C,≤ -4.2
11,G68U C95U U102C C123G,≤ -4.2
12,G65U A97U A115U,≤ -4.2
13,C63U A64C A113C A120C,≤ -4.2
14,G67C C96U A97G A115C,≤ -4.2
15,G68U G88A,≤ -4.2
16,G65C C132A A137C,≤ -4.2
17,G68C A73G C85G C118G U134A,≤ -4.2
18,G68A C85U C93U,≤ -4.2
19,A66C G84U U90G U139G G143A,≤ -4.2
20,G62U C87A,≤ -4.2
21,G67C G84U A121C,≤ -4.2
22,C63G A66G G68A,≤ -4.2
23,G68A G100U C108G,≤ -4.2

# — the RNAGym collection of RNA variant scans (doi:10.1073/pnas.2313332121)
